In US11434289B2, “Anti-GPR20 antibody and anti-GPR20 antibody-drug conjugate” (DAIICHI SANKYO COMPANY, LIMITED, priority 2017, dated 2022):

T1: human GPR20 (Homo sapiens, UniProt Q99678)
T1 construct: expressed in transfected cells; host or cells: 293T cells, transient, Lipofectamine 2000
T1 sequence (Q99678 1-358): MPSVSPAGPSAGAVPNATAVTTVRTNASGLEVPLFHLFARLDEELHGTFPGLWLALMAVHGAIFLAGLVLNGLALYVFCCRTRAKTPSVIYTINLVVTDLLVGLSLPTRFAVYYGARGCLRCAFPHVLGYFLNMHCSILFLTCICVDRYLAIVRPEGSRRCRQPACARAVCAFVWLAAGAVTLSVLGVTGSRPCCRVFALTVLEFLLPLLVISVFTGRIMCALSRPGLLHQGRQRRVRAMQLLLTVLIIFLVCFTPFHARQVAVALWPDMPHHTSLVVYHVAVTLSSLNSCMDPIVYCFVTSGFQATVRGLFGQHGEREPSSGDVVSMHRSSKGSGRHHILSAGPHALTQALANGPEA


Experiments:
human GPR20 = molecular target: T1, human GPR20; assay: Internalization activity of humanized anti-GPR20 antibodies with Hum-ZAP in HEK293 cells stably expressing GPR20-EGFP; assay type: cell-based; details: antibody 0.015 to 1.27 μg/mL, Hum-ZAP 1 μg/mL, 4 days
GIST-T1/GPR20 cells = assay: Antitumor effect in subcutaneously GIST-T1/GPR20 cell-transplanted nude mouse models; assay type: in vivo, BALB/c nude mice; details: 1 mg/kg intravenously on Day 17; FIG. 31

| Molecule | cell proliferation-suppressive effect by antibody internalization (human GPR20) | tumor volume (GIST-T1/GPR20 cells) |
| --- | --- | --- |
| h046-H8/L1: humanized h046-H8 type heavy chain and humanized h046-L1 type light chain (antibody) heavy: QVQLQQSGAELAKPGSSVKISCKASGYTFTSYYISWIKQTTGQGLKYIGFINPGSGHTNYNEKFKGKATLTVDKSSSTANMQLSSLTPDDSAIYYCARGAGGFLRIITKFDYWGQGVMVTVSSASTKGPSVFPLAPSSKSTSGGTAALGCLVKDYFPEPVTVSWNSGALTSGVHTFPAVLQSSGLYSLSSVVTVPSSSLGTQTYICNVNHKPSNTKVDKRV[letters of human IgG1 Fc omitted] light: DIQMTQSPSSLSASVGDRVTITCRASKSVSTYIHWYQQKPGKAPKLLIYSASNLESGVPSRFSGSGSGTDFTLTISSLQPEDFATYYCQQINELPYTFGQGTKVEIKRTVAAPSVFIFPPSDEQLKSGTASVVCLLNNFYPREAKVQWKVDNALQSGNSQESVTEQDSKDSTYSLSSTLTLSKADYEKHKVYACEVTHQGLSSPVTKSFNRGEC | exhibited a cell proliferation-suppressive effect by antibody internalization | – |
| antibody-drug conjugate (10): antibody-drug conjugate produced from h046-H8/L1; n 7.9 by common procedure F (conjugate) heavy: QVQLQQSGAELAKPGSSVKISCKASGYTFTSYYISWIKQTTGQGLKYIGFINPGSGHTNYNEKFKGKATLTVDKSSSTANMQLSSLTPDDSAIYYCARGAGGFLRIITKFDYWGQGVMVTVSSASTKGPSVFPLAPSSKSTSGGTAALGCLVKDYFPEPVTVSWNSGALTSGVHTFPAVLQSSGLYSLSSVVTVPSSSLGTQTYICNVNHKPSNTKVDKRV[letters of human IgG1 Fc omitted] light: DIQMTQSPSSLSASVGDRVTITCRASKSVSTYIHWYQQKPGKAPKLLIYSASNLESGVPSRFSGSGSGTDFTLTISSLQPEDFATYYCQQINELPYTFGQGTKVEIKRTVAAPSVFIFPPSDEQLKSGTASVVCLLNNFYPREAKVQWKVDNALQSGNSQESVTEQDSKDSTYSLSSTLTLSKADYEKHKVYACEVTHQGLSSPVTKSFNRGEC | – | remarkably decreased tumor volume |
| antibody-drug conjugate (11): antibody-drug conjugate produced from h046-H10/L1; n 7.9 by common procedure F (conjugate) heavy: QVQLQQSGAELAKPGSSVKVSCKASGYTFTSYYISWIKQTTGQGLKYIGFINPGSGHTNYNEKFKGKATLTVDKSSSTANMQLSSLTPDDSAIYYCARGAGGFLRIITKFDYWGQGVMVTVSSASTKGPSVFPLAPSSKSTSGGTAALGCLVKDYFPEPVTVSWNSGALTSGVHTFPAVLQSSGLYSLSSVVTVPSSSLGTQTYICNVNHKPSNTKVDKRV[letters of human IgG1 Fc omitted] light: DIQMTQSPSSLSASVGDRVTITCRASKSVSTYIHWYQQKPGKAPKLLIYSASNLESGVPSRFSGSGSGTDFTLTISSLQPEDFATYYCQQINELPYTFGQGTKVEIKRTVAAPSVFIFPPSDEQLKSGTASVVCLLNNFYPREAKVQWKVDNALQSGNSQESVTEQDSKDSTYSLSSTLTLSKADYEKHKVYACEVTHQGLSSPVTKSFNRGEC | – | remarkably decreased tumor volume |
| h046-H10/L1: humanized h046-H10 type heavy chain and humanized h046-L1 type light chain (antibody) heavy: QVQLQQSGAELAKPGSSVKVSCKASGYTFTSYYISWIKQTTGQGLKYIGFINPGSGHTNYNEKFKGKATLTVDKSSSTANMQLSSLTPDDSAIYYCARGAGGFLRIITKFDYWGQGVMVTVSSASTKGPSVFPLAPSSKSTSGGTAALGCLVKDYFPEPVTVSWNSGALTSGVHTFPAVLQSSGLYSLSSVVTVPSSSLGTQTYICNVNHKPSNTKVDKRV[letters of human IgG1 Fc omitted] light: DIQMTQSPSSLSASVGDRVTITCRASKSVSTYIHWYQQKPGKAPKLLIYSASNLESGVPSRFSGSGSGTDFTLTISSLQPEDFATYYCQQINELPYTFGQGTKVEIKRTVAAPSVFIFPPSDEQLKSGTASVVCLLNNFYPREAKVQWKVDNALQSGNSQESVTEQDSKDSTYSLSSTLTLSKADYEKHKVYACEVTHQGLSSPVTKSFNRGEC | exhibited a cell proliferation-suppressive effect by antibody internalization | – |
